Source: PubChem BioAssay AID651820 (National Center for Advancing Translational Sciences (NCATS), 2012)
Screen size: about 340,000 compounds; about 12,000 (3.5%) were called active. This list was built around the results that the source calls inconclusive (neither active nor inactive); the mix of calls is not that of the screen. Calls come from the whole dose curve; as a rule, active = well fitted inhibition curve with a large enough effect; inconclusive = small, poorly fitted or top-dose-only effect, or another doubt; inactive = no such curve, though single readings can be large or run the other way. Potencies of inconclusive entries are left out as doubtful fits.
Potency is the fitted concentration of half-maximal effect; tags give direction and shape of the fitted curve.

Experiment: qHTS Assay for Inhibitors of Hepatitis C Virus (HCV)
Settings: Huh7.5.1 HCVcc-Cre (HCVcc is cell-culture hepatitis C virus) infection, luciferase reporter, 44 h; series mostly up to 41.8 µM
Procedure, shortened: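 Cells (1,000/well) were plated 4 h before compound, then infected with HCVcc-Cre virus (~0.5 moi). After 44 h further culture, infection was read as luciferase luminescence following a 15 min substrate incubation at room temperature.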
For `CN(C)c1cc[n+](CC(=O)Nc2ccc(OC(F)F)cc2)cc1`, the Potency was “inactive”.
With `CC(C)CC(c1nnnn1C1CCCC1)N1CCN(C(=O)c2ccco2)CC1` (configuration not stated) the Potency was inconclusive [inhibitor, single point].
For `O=[N+]([O-])c1cc(-c2n[nH]c(-c3ccccc3)n2)cc([N+](=O)[O-])c1`, the Potency was inconclusive [inhibitor, single point].
For `COc1nc(-c2ccncc2)nc2ccccc12`, the Potency was inconclusive [inhibitor, full curve].
With `CC(C)c1ccc(S(=O)(=O)N2CCN(C(=O)CN3C(=O)c4ccccc4C3=O)CC2)cc1` the Potency was “inactive”.
For `C=CCOc1ccc2c(c1)C(=NO)c1cc(OCC=C)ccc1-2`, the Potency was inconclusive [inhibitor, single point].
With `COc1ccc(CN(C)C(=O)CC(c2ccccc2)c2ccccc2)cc1` the Potency was inconclusive [inhibitor, single point].
In the case of `CCOc1cc2[nH]c(=S)n(Cc3ccc(C(=O)NCCN(CC)CC)cc3)c(=O)c2cc1OCC`, the Potency is reported as inconclusive [inhibitor, single point].
In the case of `CC(Cc1ccccc1)C(=O)NCCO` (configuration not stated), the Potency is reported as “inactive”.
In the case of `Cc1ccc(Nc2nc(-c3c(C)nc4ccccn34)cs2)cc1`, the Potency is reported as inconclusive [inhibitor, full curve].
With `COc1ccc(-c2noc(CN(C)S(=O)(=O)c3ccc(Cl)cc3)n2)cc1OC` the Potency was inconclusive [inhibitor, partial curve].
For `CCOc1ccc(CNCc2ccccc2Cl)cc1`, the Potency was “inactive”.
For `CC(C)C(=O)Nc1c2c(nn1-c1ccc(F)cc1)CSC2`, the Potency was “inactive”.
With `COc1ccc(NC(=O)Cc2c[nH]c3ccccc23)cc1S(=O)(=O)N1CCOCC1` the Potency was “inactive”.
In the case of `Cc1ccc(/C=N/NC(=O)c2sccc2OCc2ccc(F)cc2)cc1`, the Potency is reported as inconclusive [inhibitor, partial curve].
For `CCCCc1cc(=O)oc2cc(C)cc(OC(C)C(=O)NCc3cccnc3)c12` (configuration not stated), the Potency was inconclusive [inhibitor, partial curve].
For `CCCN(CC1CC1)C(=S)Nc1ccc(Oc2ccccc2)cc1`, the Potency was inconclusive [inhibitor, single point].
In the case of `COP(=O)(Cc1ccc(C#N)o1)OC`, the Potency is reported as “inactive”.
For `Fc1ccc2[nH]c3c(NCCN4CCOCC4)ncnc3c2c1`, the Potency was inconclusive [inhibitor, single point].
In the case of `Cc1sc2ncnc(N3CCC(C(=O)Nc4ccc(Cl)cc4Cl)CC3)c2c1C`, the Potency is reported as inconclusive [inhibitor, single point].
For `CCCCC(=O)NC(=S)Nc1cc([N+](=O)[O-])ccc1OC`, the Potency was inconclusive [inhibitor, single point].
In the case of `COc1ccc(C(CNC(=O)c2ccc(-c3nc4ccccc4s3)o2)N2CCCC2)cc1` (configuration not stated), the Potency is reported as inconclusive [inhibitor, partial curve].
With `Fc1ccc(N2CCN(C(c3cccs3)c3nnnn3C3CCCC3)CC2)cc1` (configuration not stated) the Potency was “inactive”.
For `Cc1cc(-c2cc(C(=O)NCc3ccccc3)on2)nc(NCC2CC2)n1`, the Potency was inconclusive [inhibitor, partial curve].
With `CC1(C)CC(=O)c2c(O)cc(OCC(=O)N3CCN(c4ccccc4)CC3)cc2O1` the Potency was inconclusive [inhibitor, full curve, poor fit].
With `CC1=C(C(=O)O)N2C(=O)C(NC(=O)CCCC(=O)O)C2SC1` (configuration not stated) the Potency was “inactive”.
With `CCCc1ccc(-c2ccc(/C=C/C(=O)O)cc2)nc1` the Potency was “inactive”.
For `N#CC1(C#N)C(c2ccccc2)OC23CCCCCC2C1(C#N)C(=N)O3` (configuration not stated), the Potency was “inactive”.
With `COc1ccc2[nH]cc(CCn3ccc(O)c(C/C=C/c4ccccc4)c3=O)c2c1` the Potency was inconclusive [inhibitor, single point].
With `Brc1ccc(-n2cc(-c3ccccc3)c3c(NN4CCOCC4)ncnc32)cc1` the Potency was inconclusive [inhibitor, single point].
For `CCOc1ccc(NS(=O)(=O)c2cc(OCC(N)=O)c(C)cc2Cl)cc1`, the Potency was “inactive”.
With `COc1cc2c(cc1NC(=O)C(C)Sc1ccc(C)cc1)oc1ccccc12` (configuration not stated) the Potency was inconclusive [inhibitor, partial curve].
With `COC(=O)C1=C(c2ccc(C(C)=O)cc2)C[C@@H]2CC[C@H]1N2C(=O)NC1CCCCC1` the Potency was “inactive”.
In the case of `COCCSc1nnc(NC(=O)CSc2ccccc2)s1`, the Potency is reported as “inactive”.
In the case of `CS(=O)(=O)N1CCN=C1SCc1ccc([N+](=O)[O-])cc1`, the Potency is reported as “inactive”.
With `Cc1cc(C)cc(NC(=O)c2cc(C)n(Cc3cccs3)c2C)c1` the Potency was inconclusive [inhibitor, partial curve].
With `CCOC(=O)N1CCC(NC(=S)Nc2ccc3nc(N4CCN(C)CC4)cc(C)c3c2)CC1` the Potency was active: 10 µM.
For `COc1ccc(CCC(=O)Nc2cccc(S(=O)(=O)N3CCCCCC3)c2)cc1`, the Potency was inconclusive [inhibitor, partial curve, poor fit].
For `O=C(CSc1ccc(Cl)cc1)Nc1ccccc1N1CCN(C(=O)c2ccccc2)CC1`, the Potency was “inactive”.
For `Cc1oc(C(C)(C)C)cc1C(=O)Nc1cccc(C(=O)O)c1`, the Potency was “inactive”.
For `CC[C@]12c3[nH]c4cc(CCC(=O)N(C)C)ccc4c3CCN1C(=O)[C@@H](CC(=O)NC(C)(C)C)C[C@@H]2C(=O)N1CCN(C(=O)C2CC2)CC1`, the Potency was “inactive”.
With `O=C(Cn1cccn1)N1CCCC(N2CCN(c3ccccc3F)CC2)C1` (configuration not stated) the Potency was “inactive”.
In the case of `CCOC(=O)c1ccccc1NC(=O)C1COc2ccccc2O1` (configuration not stated), the Potency is reported as inconclusive [inhibitor, partial curve].
With `C[C@H](NC(=O)c1[nH]cnc1C(=O)Nc1ccc(Cl)cc1)C(=O)OC(C)(C)C` the Potency was inconclusive [inhibitor, single point].
With `CCN(CC)C(=O)CSc1nnc(-c2ccccc2)o1` the Potency was “inactive”.
For `CCOc1ccc(N2C(=O)C3C(C2=O)C3(c2ccccc2)c2ccccc2)cc1` (configuration not stated), the Potency was inconclusive [inhibitor, single point].
In the case of `CCN(C(=O)CN1CCN(Cc2ccccc2)CC1)c1c(N)n(Cc2ccccc2)c(=O)[nH]c1=O`, the Potency is reported as inconclusive [inhibitor, single point].
